Assay [1] concerns the target OCT4 (UniProt P20263). In words: native gel or EMSA; ternary OCT4/SOX2/DNA supershift on the P32-labeled FGF4 double-stranded DNA probe; 2-3 ug SOX2 lysate with equal amounts of OCT4 lysate, on ice for 1 hour, 6% native polyacrylamide gel. On the technique in general: A gel shift assay detects complexes by their altered migration in electrophoresis.
The target in assay [2] is OCT4 (UniProt P20263). The experiment in a line: native gel or EMSA; ternary OCT4/SOX2/DNA supershift on the P32-labeled HOXB1 double-stranded DNA probe; 2-3 ug SOX2 lysate with equal amounts of OCT4 lysate, on ice for 1 hour, 6% native polyacrylamide gel.
The target of assay [3] is OCT4 (UniProt P20263). In words: native gel or EMSA; ternary OCT4/SOX2/DNA supershift on the P32-labeled UTF1 double-stranded DNA probe; 2-3 ug SOX2 lysate with equal amounts of OCT4 lysate, on ice for 1 hour, 6% native polyacrylamide gel.

Chains of the proteins cited; added tags and fusions are not shown. Lines headed by an entry give the natural chain unless they say otherwise; changes in a name come on top.
UniProt P20263: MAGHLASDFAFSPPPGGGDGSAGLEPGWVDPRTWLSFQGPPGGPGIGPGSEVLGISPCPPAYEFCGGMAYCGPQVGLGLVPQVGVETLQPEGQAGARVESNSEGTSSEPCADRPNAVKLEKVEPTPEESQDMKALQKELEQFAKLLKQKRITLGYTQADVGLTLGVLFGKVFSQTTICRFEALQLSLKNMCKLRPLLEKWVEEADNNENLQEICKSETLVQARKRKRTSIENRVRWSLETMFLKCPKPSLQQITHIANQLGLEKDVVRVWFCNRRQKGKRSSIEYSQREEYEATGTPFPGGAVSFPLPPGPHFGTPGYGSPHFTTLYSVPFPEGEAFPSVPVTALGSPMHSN
UniProt P48431: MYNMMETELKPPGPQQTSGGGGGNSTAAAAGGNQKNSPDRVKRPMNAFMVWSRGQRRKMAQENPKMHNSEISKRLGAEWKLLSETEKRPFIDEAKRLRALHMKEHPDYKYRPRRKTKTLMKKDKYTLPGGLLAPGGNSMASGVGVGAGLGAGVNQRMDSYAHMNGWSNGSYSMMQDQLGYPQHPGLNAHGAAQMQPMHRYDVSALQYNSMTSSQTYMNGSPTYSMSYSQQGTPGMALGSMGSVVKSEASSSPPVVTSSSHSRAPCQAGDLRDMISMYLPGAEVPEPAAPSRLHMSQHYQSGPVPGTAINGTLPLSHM

No constants are given. Whether binding was seen depends on the method and setting. Some entries that bind do so weakly or less than the wild type.

Consider “SOX2 K95E R98E mutant (from UniProt P48431 1-317)”, for which the binding entry in the assay with OCT4 [1] was “binds”; with OCT4 [2], “no binding (condition: on the Hoxb1 DNA probe)”; with OCT4 [3], “no binding (condition: on the Utf1 DNA probe)”.

Regarding “SOX2 R98E M102E mutant (from UniProt P48431 1-317)”, the binding entry is “binds” with OCT4 [1], “binds” in the assay with OCT4 [2] and “no binding (condition: on the Utf1 DNA probe)” with OCT4 [3].

Turning to “SOX2 R113E mutant (from UniProt P48431 1-317)”, the values for the binding entry with OCT4 [1], with OCT4 [2] and with OCT4 [3] were “binds weakly”, “binds” and “binds”, respectively.

Take “wild-type SOX2 (from UniProt P48431 1-317)”: the binding entry with OCT4 [2] is “binds”.
